# Over roughly 33,000 sequences, “E-score (-0.5 to 0.5)” has its median near -0.054; the highest 2% begin near 0.35. This is one part of the list.
# Target: T1, Stb5 (UniProt P38699)
# T1 sequence: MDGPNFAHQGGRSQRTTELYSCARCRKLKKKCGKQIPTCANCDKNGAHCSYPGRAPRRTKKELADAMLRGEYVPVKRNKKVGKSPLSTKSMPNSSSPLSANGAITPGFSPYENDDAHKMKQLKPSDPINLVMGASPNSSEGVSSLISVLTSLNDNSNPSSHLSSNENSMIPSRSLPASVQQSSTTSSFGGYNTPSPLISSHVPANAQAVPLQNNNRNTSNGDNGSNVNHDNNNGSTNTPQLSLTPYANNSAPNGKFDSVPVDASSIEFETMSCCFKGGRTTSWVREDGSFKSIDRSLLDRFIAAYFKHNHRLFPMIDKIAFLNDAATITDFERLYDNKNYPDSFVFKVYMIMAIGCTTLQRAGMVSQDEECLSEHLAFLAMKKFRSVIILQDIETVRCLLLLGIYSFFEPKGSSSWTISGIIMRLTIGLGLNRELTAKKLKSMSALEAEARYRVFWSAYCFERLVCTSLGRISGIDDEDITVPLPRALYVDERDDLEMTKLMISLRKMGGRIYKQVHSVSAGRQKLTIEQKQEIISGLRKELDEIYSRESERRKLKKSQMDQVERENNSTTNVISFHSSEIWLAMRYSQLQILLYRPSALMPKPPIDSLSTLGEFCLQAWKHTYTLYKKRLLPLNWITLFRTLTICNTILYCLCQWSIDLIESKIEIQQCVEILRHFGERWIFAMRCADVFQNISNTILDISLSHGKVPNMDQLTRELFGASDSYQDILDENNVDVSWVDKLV
# Experiment: PBM E-score (8-mer binding enrichment) (E-score (-0.5 to 0.5)); higher = stronger / more preferred TF binding; most listed sequences are background and not binding sites
# Settings: protein concentration: 200 nM; construct: GST-full length
# Summary of the method: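 Bound GST-tagged yeast transcription factors, applied at about 100-200 nM to double-stranded universal all-10-mer Agilent arrays, were detected with fluorescent anti-GST. Scans were normalised with masliner. A modified Wilcoxon-Mann-Whitney statistic, the E-score, was assigned to each ungapped eight-base word pooled with its reverse complement by the Universal PBM Analysis Suite.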
row,Sequence,PBM E-score
1,ACAGAACT,-0.198
2,AACGATGG,-0.182
3,AAGTCTAG,-0.00941
4,ACCATGAC,0.0247
5,ATTTGACC,0.116
6,ACACAGTA,-0.234
7,AAGACAAC,0.012
8,GCAAGGAC,0.0542
9,GCACCTGA,-0.172
10,GCGGAAAA,0.155
11,GTGCACGA,-0.24
12,CCTTCTCG,-0.259
13,CAGAGAGG,-0.221
14,GGAGTGAC,0.202
15,ATGATATG,0.0664
16,ACTTTGAA,0.029
17,GTCGAACA,-0.155
18,CAGTAGTC,-0.205
19,CACCGCTC,0.402
20,ATAAGGGC,0.0814
21,ATCACCAC,0.0837
22,AGGCAAAC,-0.233
23,ACTTAGCG,-0.0431
24,CCGGCACG,0.256

row,Sequence,PBM E-score
1,GGGTCCCA,-0.0448
2,CTCGAGGC,-0.269
3,AAAGCTAG,-0.283
4,CGGCTAAG,0.0183
5,ACGAAAAA,-0.264
6,CCTCTATA,-0.232
7,CCCCGCAG,0.312
8,CGCGCGTC,0.179
9,CGCAGCGA,0.0248
10,ATATGAGG,-0.196
11,ATTGTCGC,-0.0867
12,GAAACGGA,0.193
13,GGCCACAA,-0.0969
14,CGAAGCCC,0.12
15,AAGCAGTG,-0.121
16,CGCAGGCC,0.0318
17,CGTGTAGA,-0.0723
18,CACGTCAC,-0.17
19,GGGATCCA,0.117
20,ATATAACG,0.00457
21,CGTACGGC,0.117
22,CAATATAA,0.162
23,TGCGAGCA,-0.252
24,ATTGAACA,-9e-05

row,Sequence,PBM E-score
1,ATACCCAG,-0.178
2,CCCGAGAA,0.0753
3,AGGTGACG,0.0193
4,AAGAGTCG,0.0514
5,ACGGCTAG,-0.0329
6,GGTGACTA,0.172
7,AACCCATT,-0.119
8,CCTGATGC,-0.0323
9,ACTGTATG,-0.0542
10,CGGCCAGA,0.144
11,CTGAACAA,-0.0474
12,CTTAGATC,-0.0824
13,CGAAATCG,0.239
14,AAGGGTAA,-0.263
15,CCAGAGGA,-0.201
16,AAATCAGG,-0.198
17,ACACGAGG,-0.192
18,CCGAACGC,0.217
19,GATGGTCA,-0.0843
20,TGCAAGAA,-0.135
21,CCTCCGAG,0.0853
22,GGATCGGA,0.307
23,GAATGGAA,-0.19
24,ACTGCTCC,-0.124

row,Sequence,PBM E-score
1,AGTCGGGC,0.312
2,GGAGCTGA,-0.109
3,CTTCCTCC,-0.109
4,AGGTTCAG,-0.0998
5,CTTAAAAA,-0.0655
6,AACGCGTG,-0.227
7,CTAAGCTA,-0.0687
8,AAGTCACC,-0.00044
9,AGAATTAT,0.142
10,ACAGCTGA,-0.202
11,ACGTCGGA,0.264
12,CGCTCCCG,0.0407
13,CTGTGCCA,-0.142
14,CATGGACG,-0.0383
15,CGCGCCGC,0.325
16,ACCAACCC,-0.0884
17,GAAACGAC,-0.0671
18,ACCCCGTA,0.301
19,AAAAAAAC,0.0636
20,ACCTAACA,0.0355
21,CAAGGACG,-0.113
22,ACTTGAGG,-0.169
